# From PubChem BioAssay (Tox21)
# Values joined by “and” are separate entries in the source; they are usually repeats but may differ in a detail not shown here. Equal values may be shown once. This list was built around the results that the source calls inconclusive (neither active nor inactive); the mix of calls is not that of the screen. For part of these data: A potency beside an inconclusive call is a rough fit, not a confirmed value. More than one record can exist for a structure, and the calls need not agree. Active and inactive are the calls of the source. Unless noted, the call rests on the fitted dose curve; in most records, active means well fitted curve in the direction sought with a large enough effect in the repeat runs; inconclusive means weak or mixed curves; inactive means no such curve, though single readings can be large; an effect the other way counts as inactive or inconclusive.
# Legend:
# [1] = target: Peroxisome proliferator-activated receptor gamma (Homo sapiens) (UniProt P37231); experiment: qHTS assay to identify small molecule antagonists of the peroxisome proliferator-activated receptor gamma (PPARg) signaling pathway (AID 743191; calls by dose curve; further: nearly all actives have a fitted effect of over 30% in size; further: potency means the concentration at half of the fitted maximal effect; on ratio activity, negative = inhibition: on the % scale 0 is the no-effect control and ±100 the full control effect); details: HEK293H PPARg-UAS-bla, beta-lactamase ratio, antagonist, 17 h; ratio activity, negative = inhibition: at 62.6 µM (top of the series) unless noted
# Sequence of UniProt P37231 (P37231 whole entry, looked up): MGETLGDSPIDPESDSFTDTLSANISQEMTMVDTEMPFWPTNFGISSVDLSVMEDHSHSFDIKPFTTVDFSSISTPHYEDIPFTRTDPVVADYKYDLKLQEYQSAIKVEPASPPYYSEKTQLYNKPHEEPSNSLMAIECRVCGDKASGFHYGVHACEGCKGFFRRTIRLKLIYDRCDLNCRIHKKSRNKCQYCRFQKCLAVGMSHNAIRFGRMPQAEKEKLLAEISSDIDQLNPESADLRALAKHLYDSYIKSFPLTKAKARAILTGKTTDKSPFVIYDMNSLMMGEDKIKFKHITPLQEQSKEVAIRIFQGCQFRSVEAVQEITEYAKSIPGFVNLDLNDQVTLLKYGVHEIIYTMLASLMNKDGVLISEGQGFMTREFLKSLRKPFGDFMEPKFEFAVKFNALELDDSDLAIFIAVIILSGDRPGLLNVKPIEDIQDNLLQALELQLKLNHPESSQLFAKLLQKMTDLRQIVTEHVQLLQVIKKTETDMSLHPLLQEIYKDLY
# Summary of the method: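 Beta-lactamase reporter under UAS control in HEK293H PPARg-bla cells; compound treatment 17 h at 37C. Read-out: fluorescence intensity after 1 h room-temperature incubation with LiveBLAzer B/G FRET substrate.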
# [2] = qHTS assay for small molecule agonists of the antioxidant response element (ARE) signaling pathway (AID 743202; active means well fitted activation curve with a large enough effect in the signal ratio in the repeat runs, not every such curve was filed as active; inconclusive means weak or mixed curves, or effect the other way; inactive means no such curve, though single readings can be large or run the other way; the % refers to the signal ratio; further: potency means the concentration at half of the fitted maximal effect; on activation: on the % scale 0 is the no-effect control and ±100 the full control effect); details: HepG2 ARE-bla reporter, beta-lactamase FRET, 16 h; activation: at 73.3 µM (top of the series) unless noted
# Summary of the method: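 Beta-lactamase reporter activity, read as fluorescence intensity, reflects ARE/Nrf2 pathway induction in HepG2 cells after 16 h compound exposure at 37 C; substrate loading was 2 h at room temperature.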
# [3] = qHTS assay to identify small molecule antagonists of the peroxisome proliferator-activated receptor delta (PPARd) signaling pathway - cell viability counter screen (AID 743213); details: PPARd-bla HEK293H viability, CellTiter-Glo luminescence, 17 h; viability change, negative = cytotoxic: at 62 µM (top of the series) unless noted; further: nearly all actives have a fitted effect of over 50% in size; further: potency means the concentration at half of the fitted maximal effect
# Summary of the method: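 Agonist-stimulated (L165041, 300 nM final) HEK293H PPARd UAS-bla cells are exposed to compounds for 17 h at 37 C, and ATP-based luminescence (CellTiter-Glo) from the same wells reports cytotoxicity.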
# [4] = target: Peroxisome proliferator-activated receptor delta (Homo sapiens) (UniProt Q03181); experiment: qHTS assay to identify small molecule antagonists of the peroxisome proliferator-activated receptor delta (PPARd) signaling pathway (AID 743215; active means well fitted inhibition curve with a large enough effect in the signal ratio in the repeat runs, not every such curve was filed as active; inconclusive means weak or mixed curves, or effect the other way; inactive means no such curve, though single readings can be large or run the other way; the % refers to the signal ratio; further: potency means the concentration at half of the fitted maximal effect); details: HEK293H PPARd-UAS-bla, beta-lactamase FRET ratio, antagonist, 17 h; ratio activity, negative = inhibition: at 62 µM (top of the series) unless noted
# Sequence of UniProt Q03181 (Q03181 whole entry, looked up): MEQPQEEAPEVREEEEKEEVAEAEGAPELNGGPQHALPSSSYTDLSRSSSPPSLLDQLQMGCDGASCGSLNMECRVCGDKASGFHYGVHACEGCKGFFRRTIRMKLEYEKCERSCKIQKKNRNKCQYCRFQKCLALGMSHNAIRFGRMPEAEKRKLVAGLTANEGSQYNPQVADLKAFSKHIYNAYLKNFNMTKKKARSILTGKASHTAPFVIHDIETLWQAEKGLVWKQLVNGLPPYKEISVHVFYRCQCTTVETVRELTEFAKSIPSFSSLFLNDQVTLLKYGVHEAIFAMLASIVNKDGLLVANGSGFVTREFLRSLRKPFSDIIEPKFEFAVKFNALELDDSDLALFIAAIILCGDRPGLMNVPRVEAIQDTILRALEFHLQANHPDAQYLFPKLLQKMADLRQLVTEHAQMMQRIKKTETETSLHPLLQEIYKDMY
# Summary of the method: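 Fluorescence from cleaved LiveBLAzer B/G FRET substrate (2 h, room temperature) reports PPARd-driven beta-lactamase in HEK293H UAS-bla cells. Cells had been treated 17 h at 37 C with compound plus 300 nM final L165041.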
# [5] = target: Bile acid receptor (Homo sapiens) (UniProt Q96RI1); experiment: qHTS assay to identify small molecule antagonists of the farnesoid-X-receptor (FXR) signaling pathway (AID 743217; active means well fitted inhibition curve with a large enough effect in the signal ratio in the repeat runs, not every such curve was filed as active; inconclusive means weak or mixed curves, or effect the other way; inactive means no such curve, though single readings can be large or run the other way; the % refers to the signal ratio; further: on the % scale 0 is the no-effect control and ±100 the full control effect); details: HEK293T FXR-UAS-bla, beta-lactamase ratio, CDCA-stimulated, 16 h; activity change, negative = inhibition: at 62.6 µM (top of the series) unless noted
# Sequence of UniProt Q96RI1 (Q96RI1 whole entry, looked up): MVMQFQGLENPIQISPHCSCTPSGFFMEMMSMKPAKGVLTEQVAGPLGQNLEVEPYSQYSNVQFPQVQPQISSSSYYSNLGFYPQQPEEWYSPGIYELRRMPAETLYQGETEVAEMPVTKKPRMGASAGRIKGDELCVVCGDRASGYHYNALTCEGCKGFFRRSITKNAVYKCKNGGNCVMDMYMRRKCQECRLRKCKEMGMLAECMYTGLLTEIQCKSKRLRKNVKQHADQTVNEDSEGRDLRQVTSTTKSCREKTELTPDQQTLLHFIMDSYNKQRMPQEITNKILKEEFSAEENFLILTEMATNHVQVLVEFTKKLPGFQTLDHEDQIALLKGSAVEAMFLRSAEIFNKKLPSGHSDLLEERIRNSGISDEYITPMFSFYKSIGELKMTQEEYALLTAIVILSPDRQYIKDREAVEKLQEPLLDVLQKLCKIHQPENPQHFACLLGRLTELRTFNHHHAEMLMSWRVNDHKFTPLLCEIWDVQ
# Summary of the method: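 FRET fluorescence after 2 h room-temperature LiveBLAzer loading gives the readout. Prior step: FXR-bla HEK 293T cells, seeded and incubated 5 h, received test compounds plus 50 uM final CDCA for 16 h at 37 °C.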
# [6] = qHTS assay for small molecule agonists of the antioxidant response element (ARE) signaling pathway - cell viability counter screen (AID 743203; calls by dose curve; further: nearly all actives have a fitted effect of over 55% in size; further: potency means the concentration at half of the fitted maximal effect)
# Summary of the method: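 Measured in the same wells as the beta-lactamase ARE reporter, this read-out is CellTiter-Glo luminescence from HepG2 ARE-bla cells given compounds for 16 hrs.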
# [7] = target: Vitamin D3 receptor (Homo sapiens) (UniProt P11473); experiment: qHTS assay to identify small molecule agonists of the vitamin D receptor (VDR) signaling pathway (AID 743222; calls by dose curve; further: potency means the concentration at half of the fitted maximal effect); details: HEK293T VDR-UAS-bla, beta-lactamase FRET ratio, 16 h; activation: at 63.5 µM (top of the series) unless noted
# Sequence of UniProt P11473 (P11473 whole entry, looked up): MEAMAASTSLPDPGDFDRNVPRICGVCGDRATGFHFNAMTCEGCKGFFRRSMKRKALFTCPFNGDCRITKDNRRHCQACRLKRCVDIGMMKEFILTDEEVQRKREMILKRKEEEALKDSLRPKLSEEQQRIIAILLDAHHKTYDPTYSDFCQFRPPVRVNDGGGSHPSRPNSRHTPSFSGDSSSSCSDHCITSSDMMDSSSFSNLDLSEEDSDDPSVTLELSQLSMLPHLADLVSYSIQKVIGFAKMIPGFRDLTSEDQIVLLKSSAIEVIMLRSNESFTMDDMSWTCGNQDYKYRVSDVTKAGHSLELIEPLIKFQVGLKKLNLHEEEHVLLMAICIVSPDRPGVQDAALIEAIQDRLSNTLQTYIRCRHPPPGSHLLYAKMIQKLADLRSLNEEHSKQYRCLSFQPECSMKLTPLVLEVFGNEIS
# Summary of the method: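 Following 4 h attachment at 37C, VDR-bla cells (2,000 per well) received DMSO-dissolved compounds or controls. After 16 h incubation, LiveBLAzer B/G FRET substrate was added and fluorescence read 2 h later at room temperature.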
# [8] = target: Vitamin D3 receptor (Homo sapiens) (UniProt P11473); experiment: qHTS assay to identify small molecule antagonists of the vitamin D receptor (VDR) signaling pathway (AID 743223; active means well fitted inhibition curve with a large enough effect in the signal ratio in the repeat runs, not every such curve was filed as active; inconclusive means weak or mixed curves, or effect the other way; inactive means no such curve, though single readings can be large or run the other way; the % refers to the signal ratio; further: potency means the concentration at half of the fitted maximal effect); details: VDR-UAS-bla HEK293T, beta-lactamase FRET ratio, 16 h
# Summary of the method: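 VDR-bla cells were plated, incubated 4 h at 37C, then given compound and 1alpha,25-dihydroxyvitamin D3 (3 nM final). After 16 h at 37C, LiveBLAzer B/G FRET substrate was added for 2 h at room temperature and fluorescence read.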
# [9] = qHTS assay to identify small molecule agonists of the farnesoid-X-receptor (FXR) signaling pathway - cell viability counter screen (AID 743218); details: FXR-bla HEK293T viability, CellTiter-Glo luminescence, 16 h; viability change, negative = cytotoxic: at 62.6 µM (top of the series) unless noted; further: nearly all actives have a fitted effect of over 45% in size; further: potency means the concentration at half of the fitted maximal effect
# Summary of the method: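 Readout: CellTiter-Glo luminescence, 30 min RT, multiplexed after the FXR-bla FRET reading. HEK 293T FXR-UAS-bla cells received compound 5 h post-plating and were incubated 16 h at 37 C.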
# [10] = qHTS assay for small molecule activators of the heat shock response signaling pathway (AID 743210; active means well fitted activation curve with a large enough effect in the signal ratio in the repeat runs, with a control signal flat, not every such curve was filed as active; inconclusive means weak or mixed curves; the % refers to the signal ratio; further: potency means the concentration at half of the fitted maximal effect); details: HeLa HSE-bla reporter, beta-lactamase ratio, 5 h; activation: at 62.6 µM (top of the series)
# Summary of the method: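 Fluorescence from a cleaved B/G FRET substrate (2.5 h, room temp) reports HSE-driven beta-lactamase in HeLa cells treated 5 h at 37 C with DMSO-dissolved compounds.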
# [11] = target: Peroxisome proliferator-activated receptor delta (Homo sapiens) (UniProt Q03181); experiment: qHTS assay to identify small molecule agonists of the peroxisome proliferator-activated receptor delta (PPARd) signaling pathway (AID 743212; calls by dose curve; further: potency means the concentration at half of the fitted maximal effect); details: HEK293H PPARd-UAS-bla, beta-lactamase FRET ratio, 17 h; activation: at 62.6 µM (top of the series) unless noted
# Summary of the method: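 Steps: seed PPARd-bla HEK293H cells; incubate 5 h, 37 C, 5% CO2; add compounds in DMSO; incubate, 37 C; add LiveBLAzer B/G FRET substrate; hold 2 h at room temperature; measure fluorescence.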
# [12] = target: Bile acid receptor (Homo sapiens) (UniProt Q96RI1); experiment: qHTS assay to identify small molecule agonists of the farnesoid-X-receptor (FXR) signaling pathway (AID 743220; active means well fitted activation curve with a large enough effect in the signal ratio in the repeat runs, not every such curve was filed as active; inconclusive means weak or mixed curves, or effect the other way; the % refers to the signal ratio; further: on the % scale 0 is the no-effect control and ±100 the full control effect); details: HEK293T FXR-UAS-bla, beta-lactamase FRET ratio, 16 h; activation: at 62.6 µM (top of the series) unless noted
# Summary of the method: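 FXR-UAS-bla HEK 293T cells carrying a UAS-driven beta-lactamase reporter were plated for 5 h at 37C/5% CO2, then exposed to DMSO-dissolved Tox21 10K compounds for 16 h at 37C. A LiveBLAzer B/G FRET substrate was loaded for 2 h at room temperature before fluorescence reading.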
# [13] = qHTS assay to identify small molecule antagonists of the farnesoid-X-receptor (FXR) signaling pathway - cell viability counter screen (AID 743221; active means well fitted cell-killing curve with a large enough effect in the repeat runs, not every such curve was filed as active; inconclusive means weak or mixed curves, or effect the other way; inactive means no such curve, though single readings can be large or run the other way; further: nearly all actives have a fitted effect of over 50% in size; further: potency means the concentration at half of the fitted maximal effect); details: FXR-bla HEK293T viability, CellTiter-Glo luminescence, 16 h; activity change, negative = cytotoxicity: at 62.6 µM (top of the series) unless noted
# Summary of the method: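 FXR-UAS-bla HEK 293T cells were treated with test compounds plus chenodeoxycholic acid (50 uM final) for 16 h at 37 C. Cell viability in the same wells was then read as CellTiter-Glo luminescence after 30 min at room temperature.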
# [14] = qHTS assay to identify small molecule antagonists of the vitamin D receptor (VDR) signaling pathway - cell viability counter screen (AID 743225); details: VDR-bla HEK293T viability, CellTiter-Glo luminescence, 16 h; viability change, negative = cytotoxic: at 61 µM (top of the series) unless noted; further: nearly all actives have a fitted effect of over 50% in size; further: potency means the concentration at half of the fitted maximal effect
# Summary of the method: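 VDR-bla HEK 293T cells, 4 h pre-incubation at 37C, then compound plus 1-alpha,25-dihydroxyvitamin D3 (3 nM final) for 16 h. After the beta-lactamase FRET read, CellTiter-Glo was added to the same wells; luminescence after 30 min at room temperature.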
# [15] = qHTS assay to identify small molecule agonists of the peroxisome proliferator-activated receptor delta (PPARd) signaling pathway - cell viability counter screen (AID 743211); details: PPARd-bla HEK293H viability, CellTiter-Glo luminescence, 17 h; activity change, negative = cytotoxicity: at 62.6 µM (top of the series) unless noted; further: potency means the concentration at half of the fitted maximal effect; nearly all actives have a fitted effect of over 55% in size
# Summary of the method: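 PPARd-bla HEK293H cells (UAS-beta-lactamase reporter) were treated with compounds for 17 h at 37 C. Viability was then read in the same wells by CellTiter-Glo luminescence after 30 min at room temperature.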
# [16] = qHTS assay to identify small molecule agonists of the vitamin D receptor (VDR) signaling pathway - cell viability counter screen (AID 743224); further: nearly all actives have a fitted effect of over 50% in size; further: potency means the concentration at half of the fitted maximal effect
# Summary of the method: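 In parallel with the bla FRET readout, cytotoxicity toward VDR-bla cells after 16 h compound exposure was assessed by CellTiter-Glo, with luminescence recorded after a 30 min room-temperature incubation.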
# [17] = activity change, negative = inhibition: at 61 µM (top of the series) unless noted
# Tags describe the fitted curve by direction and shape or compound fluorescence and quenching.
smiles,measurement,setting,value
CCSCc1ccccc1OC(=O)NC,Potency,[1],inactive
same,Potency,[2],inactive
same,Potency,[3],"inconclusive: 61.6 µM [rising, partial curve, poor fit]"
same,Potency,[4],inactive
same,Potency,[5],inactive
C=C1CC[C@@]2(O)[C@H]3Cc4ccc(O)c5c4[C@@]2(CCN3CC2CC2)[C@H]1O5,"ratio activity, negative = inhibition",[1],inconclusive: 0.677%
same,Potency,[6],inactive
same,Potency,[4],inactive
CCN(CC)C(=O)[C@@H]1C=C2c3cccc4[nH]cc(c34)C[C@H]2N(C)C1,"ratio activity, negative = inhibition",[1],inconclusive: 15.3% [at 232 µM]
same,Potency,[2],"inconclusive: 63.6 µM [rising, full curve, poor fit]"
same,Potency,[3],"inconclusive: 89.8 µM [cytotoxic, single point]"
same,"activity change, negative = inhibition",[5],inconclusive: -27% [at 232 µM]
same,Potency,[7],"inconclusive: 179 µM [rising, single point]"
same,"activity change, negative = inhibition",[8]; [17],inconclusive: -1.66% [at 216 µM]
C#C[C@]1(O)C=C[C@H]2[C@@H]3CCC4=CC(=O)CC[C@@H]4[C@H]3CC[C@@]21CC,Potency,[1],"inconclusive: 7.5 µM [activator, partial curve, poor fit]"
same,Potency,[2],inconclusive: 26.6 µM
same,"ratio activity, negative = inhibition",[4],inconclusive: 2.32%
same,Potency,[9],inactive
same,"activity change, negative = inhibition",[8]; [17],inconclusive: 13%
CNC(=O)Oc1cccc2c1OC(C)(C)O2,"ratio activity, negative = inhibition",[1],inconclusive: -22.5% [at 81.1 µM]
same,Potency,[10],"inconclusive: 54.9 µM [activator, partial curve, poor fit]"
same,Potency,[11],inconclusive: 24.5 µM
same,activation,[11],inconclusive: 5.45% [at 81.1 µM]
same,Potency,[4],"inconclusive: 22.7 µM [fluorescent, single point] and inactive"
same,Potency,[9],"inconclusive: 0.155 µM [rising, full curve, poor fit]"
same,Potency,[12],inactive
same,Potency,[13],inactive
same,"activity change, negative = inhibition",[8]; at 61 µM (top of the series),inconclusive: -21.7%
same,"activity change, negative = inhibition",[8]; at 78.8 µM (top of the series),inconclusive: -13%
same,Potency,[14],"inconclusive: 11 µM [rising, full curve]"
N#Cc1nn(-c2c(Cl)cc(C(F)(F)F)cc2Cl)c(N)c1S(=O)C(F)(F)F (centres undefined),"ratio activity, negative = inhibition",[1],inconclusive: -0.682% [at 81.1 µM]
same,Potency,[6],"inconclusive: 21.8 µM [cytotoxic, partial curve] and inconclusive: 33.5 µM [cytotoxic, single point]"
same,Potency,[15],active: 22 µM
same,Potency,[3],"inconclusive: 62 µM [cytotoxic, partial curve, poor fit] and inconclusive: 42.2 µM [cytotoxic, partial curve, poor fit]"
same,Potency,[9],"inconclusive: 55.3 µM [cytotoxic, single point]"
same,Potency,[13],"inconclusive: 26.6 µM [falling, partial curve, poor fit]"
same,Potency,[16],active: 24.7 µM
same,Potency,[14],"inconclusive: 78.1 nM [cytotoxic, full curve, poor fit] and inconclusive: 26.8 µM [cytotoxic, single point]"
COCCOCCO,"ratio activity, negative = inhibition",[1],inconclusive: 3.69% [at 81.1 µM]
same,Potency,[6],"inconclusive: 27.3 µM [rising, single point]"
same,Potency,[11],inactive
same,"viability change, negative = cytotoxic",[3],inconclusive: 43% [at 80.4 µM]
same,"ratio activity, negative = inhibition",[4],inconclusive: 23.1%
same,Potency,[9],"inconclusive: 30.6 µM [rising, full curve, poor fit]"
same,activation,[7],inconclusive: 0.929% [at 81.1 µM]
same,"activity change, negative = inhibition",[8]; [17],inconclusive: -2.28%
same,Potency,[16],"inconclusive: 30.6 µM [cytotoxic, single point]"
CC1CC(CC2CCC(N)C(C)C2)CCC1N (centres undefined),"ratio activity, negative = inhibition",[1],inconclusive: 1.31% [at 81.1 µM]
same,Potency,[2],inconclusive: 62.1 µM
same,Potency,[3],"inconclusive: 4.98 µM [cytotoxic, partial curve, poor fit]"
same,Potency,[9],"inconclusive: 24.9 µM [cytotoxic, partial curve]"
same,Potency,[13],"inconclusive: 0.0627 µM [falling, full curve, poor fit]"
same,Potency,[8]; [17],"inconclusive: 12.5 µM [rising, partial curve, poor fit]"
same,Potency,[16],inactive
same,Potency,[14],"inconclusive: 22.2 µM [cytotoxic, partial curve, poor fit]"
S=C=Nc1ccccc1,Potency,[1],inactive
same,Potency,[2],"inconclusive: 56.3 µM [rising, partial curve]"
same,Potency,[5],inactive
COc1c2c(cc3c1OCO3)CCN(C)C2,"ratio activity, negative = inhibition",[1],inconclusive: -5.59%
same,Potency,[6],"inconclusive: 1.19 µM [cytotoxic, single point]"
same,Potency,[4],inactive
same,Potency,[16],inactive
CCCCOCC1CO1 (centres undefined),Potency,[1],"inconclusive: 55.3 µM [inhibitor, partial curve, poor fit] and inactive"
same,Potency,[2],"inconclusive: 68.6 µM [rising, single point]"
same,Potency,[3],"inconclusive: 0.439 µM [cytotoxic, full curve, poor fit]"
same,Potency,[5],inactive
same,Potency,[9],"inconclusive: 0.0055 µM [cytotoxic, full curve, poor fit]"
same,Potency,[7],"inconclusive: 69.6 µM [rising, single point]"
same,Potency,[14],inactive
